# In PubChem BioAssay AID1460 (National Center for Advancing Translational Sciences (NCATS), 2008):
# Hit rate of the full screen: of about 270,000 compounds, about 5,800 (2.1%) were called active. Inconclusive means that the source gave no clear call. Such entries were picked first, then a sample of the others. Calls follow the shape of the dose curve; as a rule, active = well fitted inhibition curve with a large enough effect; inconclusive = small, poorly fitted or top-dose-only effect; inactive = flat fitted curve, though single readings scatter. Where the call is inconclusive, the potency comes from a doubtful curve fit.
# Molecular target: Microtubule-associated protein tau (Homo sapiens) (UniProt P10636)
# Assay: qHTS for Inhibitors of Tau Fibril Formation, Thioflavin T Binding; also: nearly all actives have a fitted effect of over 55% in size
# Conditions: recombinant tau K18 P301L, heparin-induced fibrillization, ThT fluorescence; series mostly up to 57.4 µM; activity, negative = inhibition: at the top concentration
# Method in brief: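 Fibril formation assay: tau K18 P301L at 15 uM with trace Alexa 594 label, heparin inducer 20 uM, pH 7 sodium acetate buffer, 37 C for 6 hr; endpoint ThT signal.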
# % is scaled to controls: 0 for no effect and ±100 for the full control effect; potency is read from the fitted curve at half-maximal effect; tags tell the direction and shape of the fitted curve.
# Chain of UniProt P10636 (P10636 whole entry, looked up): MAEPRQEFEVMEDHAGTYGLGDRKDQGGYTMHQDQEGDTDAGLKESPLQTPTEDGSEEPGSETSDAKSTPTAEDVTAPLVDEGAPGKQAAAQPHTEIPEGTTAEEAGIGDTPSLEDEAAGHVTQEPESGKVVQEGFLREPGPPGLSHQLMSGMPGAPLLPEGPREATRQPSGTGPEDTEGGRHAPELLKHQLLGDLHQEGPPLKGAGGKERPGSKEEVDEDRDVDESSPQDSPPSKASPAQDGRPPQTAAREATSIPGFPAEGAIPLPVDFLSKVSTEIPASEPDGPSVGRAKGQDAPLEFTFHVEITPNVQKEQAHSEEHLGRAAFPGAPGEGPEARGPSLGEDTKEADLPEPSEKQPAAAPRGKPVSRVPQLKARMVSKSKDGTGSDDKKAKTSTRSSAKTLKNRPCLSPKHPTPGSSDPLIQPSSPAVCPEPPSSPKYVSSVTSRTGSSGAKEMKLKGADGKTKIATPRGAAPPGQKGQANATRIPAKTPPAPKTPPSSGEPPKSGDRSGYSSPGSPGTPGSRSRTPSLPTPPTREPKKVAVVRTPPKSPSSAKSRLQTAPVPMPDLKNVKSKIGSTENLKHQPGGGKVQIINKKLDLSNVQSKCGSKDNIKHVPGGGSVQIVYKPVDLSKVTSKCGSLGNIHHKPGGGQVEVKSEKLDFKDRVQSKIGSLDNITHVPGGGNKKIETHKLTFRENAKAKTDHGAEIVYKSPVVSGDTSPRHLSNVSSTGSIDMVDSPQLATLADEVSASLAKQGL
Structure (SMILES),Potency,"activity, negative = inhibition"
Cc1ccc(C(=O)CSc2nc(-c3ccccc3)ccc2C#N)cc1,"inconclusive: 8.91 µM [inhibitor, partial curve]",
Cc1nc(NCCc2ccccc2)c2oc3ccccc3c2n1,"inconclusive: 22.4 µM [inhibitor, partial curve]",
Cc1noc(C)c1COc1ccc(C(=O)OCc2nnc(-c3ccc(Cl)cc3)o2)cc1,"inconclusive: 7.94 µM [inhibitor, partial curve]",
Cc1cccc(N(C)S(=O)(=O)c2nnc(NC(=O)C3CCCCC3)s2)c1,,inactive: -7.52%
O=C(O)C1CN(CCCP(=O)(O)O)CCN1 (stereo not given),,inactive: -3.09%
CCOC(=O)c1cccc(NC(=O)c2sc3nc[nH]c(=O)c3c2C)c1,"inconclusive: 20 µM [inhibitor, single point]",
C[C@@H]1C[C@](C)(C(=O)c2ccco2)C=C1c1ccco1,,inactive: -17.8%
CCc1cc2c(=O)n(Cc3ccco3)c(SCC(=O)N3CCCc4ccccc43)nc2s1,"inconclusive: 17.8 µM [inhibitor, partial curve]",
O=C(CSc1nc2ccccc2nc1Cc1ccccc1)N1CCCc2ccccc21,,inactive: -2.16%
O=C(/C=C/c1ccnc2ccccc12)c1cccs1,"inconclusive: 12.6 µM [inhibitor, partial curve]",
CC(C)(C)c1ccc(C(=O)NNC(=S)NCc2ccco2)cc1,,inactive: -5.01%
CC(=O)Nc1cccc(C(=O)/C=C/c2ccco2)c1,active: 25.1 µM,
Cc1ccc(N2CCN(c3nc4ccccc4c4nnc(C)n34)CC2)c(C)c1,"inconclusive: 31.6 µM [inhibitor, single point]",
CCOc1cccc(C(=O)Nc2cccc(NC(=O)c3ccco3)c2)c1,"inconclusive: 22.4 µM [inhibitor, partial curve, poor fit]",
COC(=O)c1ccccc1NC(=O)Cn1c(=O)n(CCCCC(=O)NCc2ccc3c(c2)OCO3)c(=O)c2ccccc21,,inactive: -5.97%
Cc1cc(C)n(-c2nc(SCCN(C)C)c3c4c(sc3n2)COC(C)(C)C4)n1,"inconclusive: 22.4 µM [inhibitor, single point]",
O=C(O)c1cccc(NC(=S)N/N=C/c2ccccc2OCc2cccc(Br)c2)c1,"inconclusive: 35.5 µM [inhibitor, partial curve, poor fit]",
Cc1cc(C(=O)N/N=C/c2cccc([N+](=O)[O-])c2)c2ccccc2n1,"inconclusive: 17.8 µM [inhibitor, single point]",

Structure (SMILES),Potency,"activity, negative = inhibition"
O=C(c1ccccc1)N1CCN(c2nc3ccc([N+](=O)[O-])cc3s2)CC1,"inconclusive: 3.55 µM [inhibitor, full curve]",
Cc1cccc(OCC(=O)Nc2ccc(N3CCCC3)cc2)c1C,active: 14.1 µM,
Cc1ccc(Cn2c(=O)n(Cc3ccccc3Cl)c(=O)c3cccnc32)cc1,,inactive: 3.77%
CN(C)c1ccc(/C=C2/C=C(c3ccc4c(c3)CCCC4)OC2=O)cc1,active: 3.16 µM,
CCOc1ccc(-c2nnn(CC(=O)N3CCN(c4ccc(OC)cc4)CC3)n2)cc1OCC,"inconclusive: 3.98 µM [inhibitor, partial curve]",
COc1ccc(C(=O)COC(=O)c2cc(S(=O)(=O)NCc3ccccc3)ccc2O)cc1,,inactive: -12.2%
COc1cccc(/C=N/n2c(-c3cccs3)n[nH]c2=S)c1,"inconclusive: 25.1 µM [inhibitor, partial curve, poor fit]",
COCCn1c(N)c(C(=O)NCC2CCCO2)c2nc3ccccc3nc21 (stereo not given),,inactive: -9.96%
CCOc1cc(CNCc2ccncc2)cc(Br)c1OCc1ccc(F)cc1,"inconclusive: 39.8 µM [inhibitor, partial curve, poor fit]",
COc1ccc(C(=O)Nc2nnc(SCc3cc(=O)n4cc(Cl)ccc4n3)s2)cc1,,inactive: -17.4%
Cc1cc(C)cc(NC(=O)Cn2c(=O)n(CC(=O)NCCc3ccccc3)c(=O)c3ccccc32)c1,"inconclusive: 20 µM [activator, partial curve]",
CCOC(=O)CSc1nc(C)cc(C)n1,,inactive: -8.51%
CCOC(=O)C(=O)/C(=C\N(C)C)c1onc(-c2c(F)cccc2Cl)c1C(=O)OC,,inactive: -3.49%
O=C(COc1ccc(Cl)cc1)OCC(=O)N1CCCc2ccccc21,"inconclusive: 20 µM [inhibitor, partial curve]",
COC(=O)C1=C(C)OC(N)=C(C#N)C1c1ccccc1 (stereo not given),,inactive: 8.06%
Cn1c(=O)c2c(nc(N3CCOCC3)n2Cc2ccccc2)n(C)c1=O,,inactive: -6.9%
COc1ccc(NCC(=O)N/N=C/C=C/c2ccccc2[N+](=O)[O-])cc1,"inconclusive: 17.8 µM [inhibitor, partial curve]",
